Compound in this experiment: COc1ccc(C2=N[C@@H](c3ccc(Cl)cc3)[C@@H](c3ccc(Cl)cc3)N2C(=O)N2CCNC(=O)C2)c(OC(C)C)c1 [Nutlin-3a]
The experiment can be described thus: Viability of human cancer cell lines after 72 h of drug (GDSC screen). As to the method:
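Human cancer cell lines in 384-well plates, medium with 10% serum, drug for 72 h over a 256-fold dose range (nine 2-fold or five 4-fold steps up to the top dose). Adherent lines were fixed and stained with the nucleic acid dye Syto60, suspension lines read with resazurin; signal relative to control wells, capped at 0 and 100%. One two-parameter sigmoid per drug and line, fitted in a mixed model over all curves with the slope shared within a line.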

Our source for the AUC and IC50 values is the supplement of paper PMC4967469.

A lower IC50 marks a more sensitive line; fits outside the tested doses are given as limits. For AUC the same curve is integrated over the 256-fold range of doses and scaled to a fraction; values near 1 show little effect.

What is called IC50 is the concentration at which inhibition is half-maximal. On to “OCUM-1 (stomach, adherent, top dose 8 µM)”, for which the AUC was determined as 0.783 and the half-inhibitory concentration (IC50) was 3.76 µM.
The matching figures for “OE19 (oesophagus, adherent, top dose 8 µM)”: 0.985 and more than 8 µM.
The like results for “OE21 (oesophagus, adherent, top dose 8 µM)” were, in that order, 0.889 and more than 8 µM.
The like results for “OE33 (oesophagus, adherent, top dose 8 µM)” were, in that order, 0.982 and more than 8 µM.
Consider OMC-1 (cervix, adherent, top dose 8 µM), for which the AUC is 0.988 and the 50% inhibitory concentration (IC50) is more than 8 µM.
The matching figures for “ONS-76 (medulloblastoma, adherent, top dose 8 µM)”: 0.799 and 4.17 µM.
The matching figures for “OPM-2 (myeloma, suspension, top dose 8 µM)”: 0.994 and more than 8 µM.
The like results for “OS-RC-2 (kidney, adherent, top dose 8 µM)” were, in that order, 0.792 and 5.63 µM.
In the case of “OSC-19 (head and neck, adherent, top dose 8 µM)”, the AUC was determined as 0.956 and the IC50 is more than 8 µM.
The like results for “OSC-20 (head and neck, adherent, top dose 4 µM)” were, in that order, 0.973 and more than 4 µM.
With OV-7 (ovary, adherent, top dose 8 µM), the AUC is 0.927 and the half-inhibitory concentration (IC50) was more than 8 µM.
As to OV-17R (ovary, adherent, top dose 8 µM), the AUC came out at 0.964 and the half-maximal inhibitory concentration (IC50) was more than 8 µM.
The like results for OV-56 (ovary, adherent, top dose 8 µM) were, in that order, 0.985 and more than 8 µM.
The matching figures for OV-90 (ovary, adherent, top dose 8 µM): 0.961 and more than 8 µM.
Consider “OVCA420 (ovary, adherent, top dose 8 µM)”, for which the AUC worked out at 0.982 and the 50% inhibitory concentration (IC50) was more than 8 µM.
The like results for “OVCA433 (ovary, adherent, top dose 8 µM)” were, in that order, 0.83 and 5.83 µM.
The like results for “OVCAR-3 (ovary, adherent, top dose 8 µM)” were, in that order, 0.929 and more than 8 µM.
The matching figures for “OVCAR-4 (ovary, adherent, top dose 8 µM)”: 0.956 and more than 8 µM.
As to “OVCAR-5 (ovary, adherent, top dose 8 µM)”, the AUC was found to be 0.977 and the half-maximal inhibitory concentration (IC50) was more than 8 µM.
Regarding “OVCAR-8 (ovary, adherent, top dose 8 µM)”, the AUC came to 0.988 and the IC50 was more than 8 µM.
The like results for OVISE (ovary, adherent, top dose 8 µM) were, in that order, 0.756 and 3.59 µM.
The like results for OVK-18 (ovary, adherent, top dose 8 µM) were, in that order, 0.777 and 3.56 µM.
The like results for OVKATE (ovary, adherent, top dose 8 µM) were, in that order, 0.976 and more than 8 µM.
As for OVMIU (ovary, adherent, top dose 8 µM), the AUC amounted to 0.856 and the IC50 is more than 8 µM.
The like results for OVTOKO (ovary, adherent, top dose 8 µM) were, in that order, 0.753 and 3.35 µM.
The matching figures for “P12-ICHIKAWA (T-cell lymphoblastic leukaemia, suspension, top dose 8 µM)”: 0.994 and more than 8 µM.
For the cell line “P30-OHK (lymphoblastic leukaemia, suspension, top dose 8 µM)”, the AUC was 0.877 and the IC50 was 5.77 µM.
Turning to “P31-FUJ (acute myeloid leukaemia, suspension, top dose 8 µM)”, the AUC was 0.996 and the IC50 is more than 8 µM.
For “P32-ISH (Burkitt lymphoma, suspension, top dose 8 µM)”, the AUC was 0.995 and the 50% inhibitory concentration (IC50) is more than 8 µM.
